In PMC4336329 (PLoS ONE, 2015):
Among all 310,000 compounds or so, about 2,200 (0.71%) showed an effect of 50% or more. The effect is printed as a negative number. This is one part of the list.

target: human ether-à-go-go-related gene (hERG) potassium channel (human, UniProt Q12809); experiment: primary screen, population patch clamp on CHO cells stably expressing hERG
Sequence (Q12809 whole entry, looked up): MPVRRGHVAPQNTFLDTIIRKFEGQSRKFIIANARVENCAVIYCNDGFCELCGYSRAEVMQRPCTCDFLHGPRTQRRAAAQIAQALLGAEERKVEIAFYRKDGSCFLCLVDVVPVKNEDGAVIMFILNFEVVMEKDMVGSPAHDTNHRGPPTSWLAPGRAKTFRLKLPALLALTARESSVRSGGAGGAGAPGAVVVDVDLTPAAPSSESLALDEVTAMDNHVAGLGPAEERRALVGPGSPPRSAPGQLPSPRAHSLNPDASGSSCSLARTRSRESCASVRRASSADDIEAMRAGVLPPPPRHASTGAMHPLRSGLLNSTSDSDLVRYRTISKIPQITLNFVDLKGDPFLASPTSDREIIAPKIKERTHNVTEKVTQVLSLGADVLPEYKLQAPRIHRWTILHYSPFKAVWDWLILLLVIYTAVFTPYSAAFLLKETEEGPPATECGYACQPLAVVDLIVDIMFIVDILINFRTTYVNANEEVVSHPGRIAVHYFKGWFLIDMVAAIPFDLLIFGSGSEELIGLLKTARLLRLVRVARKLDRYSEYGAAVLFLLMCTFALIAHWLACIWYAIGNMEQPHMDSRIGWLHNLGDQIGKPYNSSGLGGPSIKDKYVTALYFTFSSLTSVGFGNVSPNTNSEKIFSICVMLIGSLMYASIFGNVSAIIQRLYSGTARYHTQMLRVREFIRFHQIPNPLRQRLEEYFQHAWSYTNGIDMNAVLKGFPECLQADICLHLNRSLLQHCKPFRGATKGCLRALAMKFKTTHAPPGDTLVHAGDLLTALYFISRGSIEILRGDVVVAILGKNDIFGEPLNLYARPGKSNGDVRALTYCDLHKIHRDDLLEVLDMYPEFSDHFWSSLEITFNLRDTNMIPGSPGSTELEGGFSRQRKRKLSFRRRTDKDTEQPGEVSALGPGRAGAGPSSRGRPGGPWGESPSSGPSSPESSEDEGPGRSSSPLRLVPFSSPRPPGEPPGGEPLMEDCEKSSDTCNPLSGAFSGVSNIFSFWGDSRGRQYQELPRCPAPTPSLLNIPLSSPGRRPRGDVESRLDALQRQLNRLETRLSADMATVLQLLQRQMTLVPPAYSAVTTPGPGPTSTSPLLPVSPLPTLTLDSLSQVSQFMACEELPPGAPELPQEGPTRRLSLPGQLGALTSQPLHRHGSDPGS

Compound | hERG current change (%, negative = inhibition) at 1uM [%]
c1ccc2c(CN3CCOCC3)c[nH]c2c1 | 15.8
CC(C)[C@H]1CN=C2N(CCNC(=O)CCC3CCCCC3)[C@H](Cc3ccc(O)cc3)CN21 | -2.53
O=C(O)c1ccc(NC(=S)NC(NC(=O)c2ccco2)C(Cl)(Cl)Cl)cc1 (stereo not drawn) | 4.1
COc1cccc(NC(=O)Nc2cccn(Cc3ccc(C)cc3)c2=O)c1 | 17.8
COc1ccc(CCC(=O)NCCc2cn3c(C)csc3n2)cc1 | 5.57
CCOC(=O)N1CCC2(CC1)C(C#N)=C(N)Oc1n[nH]c(CSc3ccc(C)cc3)c12 | 5.09
CSC1=NCCN1C(=O)COc1ccccc1 | 13.4
CSc1cccc(NC(N)=O)c1 | 8.09
O=C(Nc1cccc(Cl)c1)OC1CCCCc2cccnc21 (stereo not drawn) | 14.2
NC(=O)c1c(NC(=O)c2ccc(F)cc2)sc2c1CCC2 | 11.8
CC(C)[C@H](NC(=O)OC(C)(C)C)C(=O)N1CCC(C(=O)N[C@@H](C)C(=O)Nc2ccc(F)cc2)CC1 | 11.9
COc1ccc(-c2nn(CCC#N)cc2C(=O)Nc2ccccc2Br)cc1[N+](=O)[O-] | 0.755
CNc1ccc(/C=C/C(=O)c2ccc3c(c2)OCCO3)cc1[N+](=O)[O-] | 14.5
COc1ccc(/C=C/c2ccc3cccc(O)c3n2)c(OC)c1OC | 19.3
Cc1ccc(C)c(OCc2cc(C(=O)NC3CCOC(C)(C)C3)no2)c1 (stereo not drawn) | 12.5
COc1ccc(-n2c(SCC[NH+](C)C)nc3ccccc3c2=O)cc1.[Cl-] | -1.62
CSc1nnnn1CCn1nnnc1SC | 8
Cl.O.O=C(NCCCCCCNC(=O)c1cncc(O)c1)c1cncc(O)c1 | 10.5
N#Cc1c(-c2ccc3c(c2)OCO3)ccn2nc(-c3cccc(C(F)(F)F)c3)nc12 | 0.0555
COCCCNC(=S)Nc1ccc2nc3n(c(=O)c2c1)CCCCC3 | 10.9
CN(C)/C=N/c1nc2nccc(-c3ccccc3)n2n1 | 11.4
Cc1ccc(S(=O)(=O)Nc2nc3ccccc3nc2NCc2ccco2)cc1 | 4.78

Compound | hERG current change (%, negative = inhibition) at 1uM [%]
Cc1ccc(S(=O)(=O)N2CCN(CC(=O)Nc3ccc([N+](=O)[O-])cc3)CC2)cc1C | -3.12
CC(C)CN(C(=O)c1cccc(S(=O)(=O)N2CCN(C)CC2)c1)C1CCS(=O)(=O)C1 (stereo not drawn) | 15.7
COc1cccc(CN(C)CC(=O)Nc2sc3c(c2C#N)CCC3)c1OC | 7.66
O=C(CCc1nc2ccccc2c(=O)[nH]1)OCc1ccc(-c2ccccc2)cc1 | 15
COC(=O)c1c(C)oc(C)c1S(=O)(=O)N(Cc1ccccc1)C(C)C | 18.9
CC1CC(C)CN(C(=O)C2CCN(S(=O)(=O)c3c(Cl)cccc3Cl)CC2)C1 (stereo not drawn) | 7.94
COc1cc2c(cc1OC)-c1cc(Nc3ccc(C(=O)O)cc3)nc(=O)n1CC2 | 8.27
CCC(C)OC(=O)C[N+](C)(C)CCOC1CC2CCC1(C)C2(C)C.[Cl-] (stereo not drawn) | 10.1
CCOc1ccc(N(CC(=O)Nc2cc(C)ccc2C)S(=O)(=O)c2c(C)[nH]c(=O)[nH]c2=O)cc1 | -3.81
COc1cccc(C(=O)NCC(=O)OCC(=O)Nc2cc(OC)c([N+](=O)[O-])cc2C)c1 | 9.21
O=C(c1ccco1)N1CCN(Cc2nnc(-c3cccc(Cl)c3)o2)CC1 | -13.8
CS(=O)(=O)N(CC(=O)N1CCCC1)Cc1ccc(F)cc1 | 17.8
C=C(C)CNC(=S)NNC(=O)CCn1c2cc(Cl)ccc2c2ccc(Cl)cc21 | 13
CCCCn1c(N)c(N(CCC(C)C)C(=O)c2cccc(S(=O)(=O)N3CCN(C)CC3)c2)c(=O)[nH]c1=O | 7.75
CCc1c(C)nc(SC)n(CC#N)c1=O | 5.77
Cc1cccc(N2CCN(S(=O)(=O)c3ccc4[nH]c(=O)ccc4c3)CC2)c1C | 9.28
O=C1N(Cc2cccnc2)C[C@@H]2C[C@@H](c3cccc(OC4CCCC4)c3)N3CCC[C@@]123 | -53.3
Cc1c(Cl)cccc1NC(=O)CC1SCCNC1=O (stereo not drawn) | 1.6
Clc1cccc(-c2noc3ncnc(Nc4ccc5c(c4)OCO5)c23)c1 | 17.3
COc1ccc(/C=N/N2CCOCC2)cc1Cn1nc(C)c([N+](=O)[O-])c1C | 7.31
COc1cc(C(=O)NCc2nnc(SCC(=O)N3CCCCCC3)o2)cc(OC)c1OC | 11.6
O=C(/C=C/Nc1ccccc1C(=O)O)c1cccs1 | 14.3

Compound | hERG current change (%, negative = inhibition) at 1uM [%]
O=C(N/N=C/c1c(O)n(CCc2ccccc2)c(=O)[nH]c1=O)c1ccccc1O | -4.33
CCOC(=O)Cc1csc(NC(=O)C2CCCN(S(=O)(=O)c3cnc[nH]3)C2)n1 (stereo not drawn) | 6.87
O=C(COC(=O)c1ccccn1)NC(=O)c1ccccc1 | -5.45
O=c1[nH]c(=O)n(C(c2ccccc2)c2ccccc2)cc1Br | 1.23
O=C(NCC(=O)N1CCN(c2ccccn2)CC1)c1ccc(Br)o1 | 9.49
CCOC(=O)c1c(NC(=O)CSc2nnnn2-c2ccc3c(c2)OCCO3)sc(C)c1C | 13.5
CCC(CC)NC(=O)CN(c1ccccc1OC)S(=O)(=O)c1cccs1 | 1.24
COc1ccccc1CNC(=O)C1Cc2cc(S(=O)(=O)N3CCCCC3)ccc2N1C(C)=O (stereo not drawn) | 4.52
Cc1cc(C)c(S(=O)(=O)NCC(=O)NCc2ccccn2)c(C)c1 | 7.06
COc1ccc(C2/C(=C(/O)c3ccccc3)C(=O)C(=O)N2C)cc1OC (stereo not drawn) | 1.22
Cc1nc2[nH]c(=S)[nH]c2cc1Br | 9.44
Cc1[nH][nH]c(=O)c1C(c1ccc(O)c(Br)c1)c1c(C)[nH][nH]c1=O | 15.1
CS(=O)(=O)N1CCC(C(=O)Nc2ccccc2Cl)CC1 | 17.3
Cc1ccc2c(c1)N(CC(=O)NCCc1c[nH]c3ccccc13)C(=O)CO2 | -4.85
COc1ccc(Cl)cc1-c1nc(N)nc(NC2CCCCC2)n1 | 20.3
Cc1ccc[n+](CC(=O)c2cc3ccccc3oc2=O)c1.[Br-] | -3.14
CCc1ccc(-c2csc3ncn(CC)c(=O)c23)cc1 | 2.91
CCOc1ccc(NC(=O)Nc2ccc3c(c2)CCC3)cc1 | -9.68
COc1ccc(-c2csc(Nc3ccccc3)[n+]2CC(O)c2ccc([N+](=O)[O-])cc2)cc1.[Br-] (stereo not drawn) | 15.1
COc1ccc(C(=O)NCC(c2cccnc2)N2CCN(c3ccccc3OC)CC2)cc1OC (stereo not drawn) | -3.19
N#CC1(NC(=O)COC(=O)c2nc(Cl)c(Cl)c(N)c2Cl)CCCCC1 | -4.88
CCOC(=O)C(CC)(CC)C(=O)/C=C/c1cccc(Br)c1 | 12.4

Compound | hERG current change (%, negative = inhibition) at 1uM [%]
CCC(=O)c1c(NC(CC)CO)cc(C)oc1=O (stereo not drawn) | -0.845
COc1ccc2[nH]c(=O)c(CN(Cc3ccccc3)Cc3nnnn3CC3CCCO3)cc2c1 (stereo not drawn) | -5.15
CSc1ccccc1NC(=O)Cc1ccccc1 | 7.82
N=C1S/C(=C\c2cn[nH]c2-c2ccc(F)cc2)C(=O)N1c1ccccc1F | 6.37
Cc1ccc(C)c(-n2ccnc2SCC(N)=O)c1 | 11.4
CCCCN(C)C(=O)c1nc2ccccn2c1CN1CCC[C@H]1CO | 7.66
O=C(COc1ccc(S(=O)(=O)N2CCCC2)cc1Cl)NCc1ccco1 | 7.82
CC(=O)c1c(C)[nH]c(C(=O)COC(=O)c2nccnc2N)c1C | -0.474
O=C(NCCO)c1nc(C(=O)c2ccc(Cl)cc2)c2ccccc2n1 | 12.4
C=CCn1c(C(CC(C)C)CC(C)O)n[nH]c1=S (stereo not drawn) | 2.61
Cc1cc2oc3ccc(NCCCN4CCOCC4)cc3c(=O)c2cc1C | 10.4
Cc1ccc2nc(Cn3cc(C(F)(F)F)ccc3=O)cc(=O)n2c1 | 1.21
O=C1c2cccc(OCC(=O)N3N=C(c4cccs4)CC3c3ccc(F)cc3)c2CCN1Cc1cccnc1 (stereo not drawn) | 2.06
CC(C)(C)n1nc(C2CC2)cc1NC(=O)Nc1ccc(Cl)cc1 | 22.3
Cc1cc(=O)cc(C)n1-c1ccc(Br)cc1 | 14.4
O=C(Cn1c(=O)cnc2ccccc21)NCC(=O)Nc1ccc(F)c(F)c1 | 11.1
COC(=O)c1noc(C)c1-c1ccnn1C(=O)c1ccc(Cl)cc1 | 6.16
COc1ccc(C2c3ccc4ccccc4c3Oc3ncn(CCO)c(=N)c32)cc1 (stereo not drawn) | -61.7
Cc1ccccc1NS(=O)(=O)c1cc(C(=O)NCCC2=CCCCC2)ccc1C | -2.3
NNC(=O)Cn1nc(-c2ccccc2)c2ccccc2c1=O | 14.6
O=C1C(C2=NC(C(=O)O)C3C(=O)N(c4ccccc4)C(=O)C23)=C(O)c2ccccc21 (stereo not drawn) | 0.635
